# The whole screen tested about 310,000 compounds, of which about 2,200 (0.71%) showed an effect of 50% or more. Effects have a minus sign here. The list shows a part of the results.
# Biological target: human ether-à-go-go-related gene (hERG) potassium channel (human, UniProt Q12809)
# Experiment: primary screen, population patch clamp on CHO cells stably expressing hERG
# Sequence of human ether-à-go-go-related gene (hERG) potassium channel (Q12809 whole entry, looked up): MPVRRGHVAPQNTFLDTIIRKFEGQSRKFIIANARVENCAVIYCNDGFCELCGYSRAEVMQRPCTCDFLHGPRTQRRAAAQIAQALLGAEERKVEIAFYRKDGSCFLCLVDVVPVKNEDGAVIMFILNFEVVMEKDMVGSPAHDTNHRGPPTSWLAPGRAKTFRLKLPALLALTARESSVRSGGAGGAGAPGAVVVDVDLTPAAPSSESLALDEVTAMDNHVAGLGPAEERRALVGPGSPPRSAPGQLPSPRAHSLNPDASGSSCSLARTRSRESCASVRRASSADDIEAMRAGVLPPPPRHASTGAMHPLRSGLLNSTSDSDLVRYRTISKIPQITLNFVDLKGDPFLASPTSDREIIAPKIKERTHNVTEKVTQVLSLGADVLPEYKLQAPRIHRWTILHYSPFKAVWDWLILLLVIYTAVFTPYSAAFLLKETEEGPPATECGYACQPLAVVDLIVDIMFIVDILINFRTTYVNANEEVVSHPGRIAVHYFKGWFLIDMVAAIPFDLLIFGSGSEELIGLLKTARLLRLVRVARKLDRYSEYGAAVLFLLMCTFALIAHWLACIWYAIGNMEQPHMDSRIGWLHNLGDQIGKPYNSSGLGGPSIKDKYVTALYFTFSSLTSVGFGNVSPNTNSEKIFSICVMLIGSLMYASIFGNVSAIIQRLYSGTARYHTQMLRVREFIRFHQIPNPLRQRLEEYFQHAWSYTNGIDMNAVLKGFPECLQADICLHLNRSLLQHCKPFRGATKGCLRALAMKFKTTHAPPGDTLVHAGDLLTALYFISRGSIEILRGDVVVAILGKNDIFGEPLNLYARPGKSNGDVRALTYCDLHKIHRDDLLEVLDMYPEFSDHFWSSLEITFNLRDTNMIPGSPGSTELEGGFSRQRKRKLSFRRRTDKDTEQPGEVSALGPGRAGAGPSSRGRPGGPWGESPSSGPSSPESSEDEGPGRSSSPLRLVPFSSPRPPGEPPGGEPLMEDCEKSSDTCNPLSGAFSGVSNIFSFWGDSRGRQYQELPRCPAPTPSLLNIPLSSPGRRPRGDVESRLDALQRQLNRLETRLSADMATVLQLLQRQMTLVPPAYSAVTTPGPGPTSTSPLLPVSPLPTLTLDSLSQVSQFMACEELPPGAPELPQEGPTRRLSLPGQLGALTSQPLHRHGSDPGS
row,Compound,"hERG current change (%, negative = inhibition) at 1uM [%]"
1,CCOC(=O)CNC(=O)CSc1nc2ncc(Br)cc2[nH]1,13.5
2,CN1CCN(c2nc3c(c(=O)n(C)c(=O)n3C)n2Cc2ccccc2Cl)CC1,10.6
3,Cc1cc(C)nc(NS(=O)(=O)c2ccc(NC(=O)c3ccc(S(=O)(=O)N4CC(C)OC(C)C4)cc3)cc2)n1 (stereo not drawn),1.41
4,COc1ccc(CCC(=O)N2CCCC(Nc3ccccc3)C2)cc1OC (stereo not drawn),-2.92
5,COc1ccc(-c2cc(C(=O)N(C)Cc3ccccc3)no2)cc1OC,3.96
6,CCN(C(=O)c1cc2c(=O)[nH]c3ccc(C)cc3c2s1)c1ccc(F)cc1,1.21
7,COc1ccc(Cl)cc1C(=O)OCC(=O)Nc1cccnc1Cl,23.2
8,COc1cccc(-c2noc(Cn3nc(C)c([N+](=O)[O-])c3C)n2)c1,15.1
9,Cn1cccc1C(=O)Nc1nc(-c2ccccn2)cs1,19.2
10,C/C(=N\OC(=O)c1c(-c2ccccc2Cl)noc1C)c1ccncc1,-0.0398
11,O=c1[nH]n2c(=O)c3c([nH]c2c1N=Nc1cccc(C(F)(F)F)c1)CCCC3,2.18
12,O=C(Nc1ccc(-n2cccn2)cc1)C1CCN(Cc2ccsc2)CC1,-41.9
13,CN(C)/C(Cn1cncn1)=C1/N=C(c2c(F)cccc2F)OC1=O,11.6
14,C/C(=N/NC(=O)c1ccncc1)c1ccccc1,23.5
15,Cc1ccc(CNC(=O)c2ccccc2N(C)S(C)(=O)=O)cc1,11
16,CCOc1c2ccc(C(=O)NCc3cc(C(F)(F)F)cc(C(F)(F)F)c3)cc2nn1CCOC,7.84
17,COCc1cc(C)n(CC(=O)Nc2ccc(N3CCOCC3)cc2)c(=O)c1C#N,4.95
18,COC(=O)[C@H](CCSC)NC(=O)NCc1ccccc1F,4.83
19,CCN1CCN(C(=O)C2CCN(S(=O)(=O)N3CCC4(CC3)OCCO4)CC2)CC1,9.75
20,CC1CCCC(C)N1C(=O)CSc1nnnn1Cc1ccccc1 (stereo not drawn),10.5
21,CC(Oc1ccc(-c2ccccc2)c(F)c1)c1ccn(S(=O)(=O)c2cccc3ccccc23)n1 (stereo not drawn),2.17
22,CN(Cc1ccccc1)C(=O)CCS(=O)(=O)c1cc2c(cc1Cl)NC(=O)CO2,-10.6
23,Cc1ccccc1OCC(=O)OCC(=O)NC1CC1,9.5
24,COc1ccc(S(=O)(=O)N2CCN(C3CCCCCCC3)CC2)cc1,7.5
